Experimental data: PubChem BioAssay AID894 (National Center for Advancing Translational Sciences (NCATS), 2007)
The campaign covered roughly 150,000 compounds. About 6,500 (4.3%) were called active. Inconclusive means that the source gave no clear call. Such entries were picked first, then a sample of the others. Calls follow the shape of the dose curve; as a rule, active = well fitted inhibition curve with a large enough effect (not every such curve was filed as active); inconclusive = small, poorly fitted or top-dose-only effect, or another doubt; inactive = no such curve, though single readings can be large or run the other way. A potency beside an inconclusive call is a rough fit, not a confirmed value.

target: 15-hydroxyprostaglandin dehydrogenase [NAD(+)] (Homo sapiens) (UniProt P15428); assay: qHTS Assay for Inhibitors of HPGD (15-Hydroxyprostaglandin Dehydrogenase); settings: purified HPGD, NADH fluorescence kinetic, PGE2 substrate; activity change, negative = inhibition: active compounds read low
Sequence of UniProt P15428 (P15428 whole entry, looked up): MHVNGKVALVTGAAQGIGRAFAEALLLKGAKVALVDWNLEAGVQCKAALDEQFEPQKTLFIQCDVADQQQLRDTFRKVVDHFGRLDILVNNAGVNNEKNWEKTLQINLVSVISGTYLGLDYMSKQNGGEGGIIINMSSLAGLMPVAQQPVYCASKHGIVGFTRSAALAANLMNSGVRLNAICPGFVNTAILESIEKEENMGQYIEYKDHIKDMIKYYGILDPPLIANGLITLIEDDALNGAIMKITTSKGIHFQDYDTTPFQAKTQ
Summary of the method: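 NADH formation kinetics: reaction with 30 uM PGE2 and 1 mM NAD+ (final), 20 nM enzyme, Tris-HCl pH 8 with Tween 20, after 15 min compound preincubation at room temperature. Fluorescence change, last versus first of five reads.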
% is scaled to controls: 0 for no effect and ±100 for the full control effect; potency is read from the fitted curve at half-maximal effect; tags tell the direction and shape of the fitted curve.

Potency, active:
Cc1csc(NC(=O)c2ccc(C)c([N+](=O)[O-])c2)n1 28.2 µM, O=C(COc1ccccc1Br)NCc1ccco1 25.1 µM, CCOc1ccc(-c2nnc(SCc3nnc(-c4ccccc4)o3)n2-c2ccccc2F)cc1 12.6 µM, COCCCNC(=O)c1ccc2c(c1)ncn2-c1ccccc1OC 11.2 µM, COc1cccc(-c2nc(-c3ccccc3)[nH]c(=O)c2C#N)c1 15.8 µM, COC(=O)c1c(NC(=O)CN2CCC3(O)CCCCC3C2c2ccc(OC)cc2OC)sc(C)c1C (stereo not drawn) 20 µM, O=C(CCc1ccc(Oc2cc([N+](=O)[O-])cc([N+](=O)[O-])c2)cc1)N1CCCCC1 0.0447 µM, CN(C)CC(O)COc1cc2ccccc2cc1C(=O)N1CCCCC1 (stereo not drawn) 28.2 µM, Cc1onc(-c2c(Cl)cccc2Cl)c1C(=O)NCCc1ccc(S(N)(=O)=O)cc1 31.6 µM, Cc1cccc(OCC(=O)Nc2ccccc2C(F)(F)F)c1 17.8 µM, CCC(=O)c1ccc(N2CCCCCC2)c(F)c1 15.8 µM, Cc1cc(C)nc(NN2C(=O)/C(=C/c3ccccc3)SC2=S)n1 35.5 µM, Cc1ccc(N2C(=O)CN(Cc3sccc3C)C2=S)cc1C 3.16 µM, O=c1[nH]c(-c2ccccc2F)nc2c1sc(=S)n2Cc1ccccc1 10 µM

Potency, inconclusive:
CCOC(=O)c1c(C)nc2sc(C(=O)Nc3ccc(C(C)=O)cc3)c(N)c2c1-c1ccc(OC)cc1 28.2 µM [inhibitor, single point], CC(C)CC(=O)Nc1cc2nn(-c3ccccc3)nc2cc1Cl 15.8 µM [inhibitor, partial curve], CCOC(=O)c1cc2cc(C)ccc2[nH]1 28.2 µM [inhibitor, partial curve], O=C(c1cncc(Br)c1)N1CCN(c2ccc(N3CCOCC3)nn2)CC1 20 µM [inhibitor, partial curve], Cc1ccccc1Cn1cc(NC(=O)c2nc3ncccn3n2)cn1 31.6 µM [inhibitor, single point], Cc1ccsc1/C=N/NC(=O)Cc1cccn1C 28.2 µM [inhibitor, single point], c1ccc(Cn2c(-c3cccs3)nc3nc4ccccc4nc32)cc1 31.6 µM [inhibitor, partial curve], CCCCNC(=O)CSc1nccn1Cc1ccccc1 17.8 µM [inhibitor, partial curve, poor fit], CCOC(=O)c1c(C)nc2sc(C(=O)Nc3ccc(OC)cc3)c(N)c2c1-c1ccc(OC)cc1 28.2 µM [inhibitor, partial curve], Cc1cc(C)c2c(n1)nn1c(N3CCN(c4ccccc4)CC3)cc(C)nc21 8.91 µM [inhibitor, partial curve], CCS(=O)(=O)Nc1ccc(C2=NN(C(=S)Nc3ccccc3)C(c3ccco3)C2)cc1 (stereo not drawn) 28.2 µM [inhibitor, partial curve], CCOC(=O)CC(=O)Nc1cc(Cl)ccc1O 31.6 µM [inhibitor, partial curve], Nc1c(C(=O)NCCN2CCOCC2)c2nc3ccccc3nc2n1-c1cccc(F)c1 28.2 µM [inhibitor, partial curve], NC(=O)c1c(NC(=O)c2cccnc2Cl)sc2c1CCCC2 17.8 µM [inhibitor, partial curve], CC1=C(C(=O)OCC2CCCO2)C(c2ccccc2OC(C)C)C2=C(CC(c3ccco3)CC2=O)N1 (stereo not drawn) 28.2 µM [inhibitor, partial curve], COc1ccc2[nH]c(=O)c(CN(CCc3ccccc3)Cc3nnnn3CC3CCCO3)cc2c1 (stereo not drawn) 35.5 µM [inhibitor, single point], CCCn1c(SCc2ccccc2)nc2c1c(=O)[nH]c(=O)n2C 22.4 µM [inhibitor, single point], CN(C)S(=O)(=O)c1ccc(C(=O)Nc2nc(-c3cccs3)cs2)cc1 35.5 µM [inhibitor, single point], COc1ccccc1[C@H]1C(c2ccc(F)cc2)=NN(c2ccccc2)[C@@H]1CO 35.5 µM [inhibitor, partial curve], COc1cccc(/C=C/C(=O)NCCc2ccc3c(c2)OCCO3)c1 25.1 µM [inhibitor, partial curve], C=CCSc1nnc(-c2cc3c(s2)-c2ccccc2CC3)o1 28.2 µM [inhibitor, partial curve], NCCSS(=O)(=O)CCN 7.08 µM [inhibitor, single point], Cc1ccc(-n2c(N)c(C(=O)Nc3c(C)n(C)n(-c4ccccc4)c3=O)c3nc4ccccc4nc32)cc1 25.1 µM [inhibitor, single point], CCOc1ccc(/C(C)=N/N2C(=O)C(CC(=O)Nc3ccc(OC)cc3[N+](=O)[O-])SC2=Nc2cccc(C)c2C)cc1 (stereo not drawn) 22.4 µM [inhibitor, single point], CCN1CCN(C(=O)c2cc3cc4cc(OC)ccc4nc3s2)CC1 15.8 µM [inhibitor, partial curve], CCCOc1ccc(C(=O)c2nc3c(n2O)CCCCC3)cc1 22.4 µM [inhibitor, partial curve], COc1cc2c(cc1NC(=O)c1cccc(S(=O)(=O)N(C)C)c1)oc1ccccc12 31.6 µM [inhibitor, partial curve], CNc1nc(-c2ccccc2)cc(C(F)(F)F)c1C#N 25.1 µM [inhibitor, partial curve], NC(=O)c1cc(-c2ccccc2)sc1NC(=O)CN1CCCCC1 31.6 µM [inhibitor, partial curve], COc1cc(-c2nnc(SCc3c(F)cccc3Cl)o2)cc(OC)c1OC 22.4 µM [inhibitor, partial curve], CC1CCCN(c2nc3ccsc3c(=O)s2)C1 (stereo not drawn) 22.4 µM [inhibitor, partial curve], Cc1cccc(NC(=O)c2cnc3ccccn3c2=O)c1 31.6 µM [inhibitor, partial curve], CCCCn1c(SCC(N)=O)nnc1-c1cc(OC)c(OC)c(OC)c1 25.1 µM [inhibitor, partial curve], CCc1[nH]c(=O)c(C#N)c2c1COC(C)(C)C2 25.1 µM [inhibitor, partial curve], CC(C)Nc1ncnc2c1cnn2-c1ccc(Cl)cc1 22.4 µM [inhibitor, partial curve, poor fit], Nc1nnc(CC(=O)N/N=C/c2ccc(-c3ccccc3)o2)s1 14.1 µM [inhibitor, partial curve], O=S(=O)(c1ccc(-c2csc(-c3cccnc3)n2)cc1)N1CCCC1 20 µM [inhibitor, partial curve], COC(=O)c1sc(NC(=O)c2oc3ccccc3c2C)nc1C 35.5 µM [inhibitor, single point], CCCn1c(C)cc(/C=C(\C#N)C(=O)OCC(=O)NC(=O)NCC)c1C 35.5 µM [inhibitor, partial curve]

Activity change, negative = inhibition, inactive:
COc1cc(CNc2ccc(N3CCCC3)cc2)ccc1OCc1ccccc1 -14.8%, Cc1ccc2c(c1Br)/C(=N/N1C(=O)c3ccccc3C1=O)C(=O)N2 -12.2%, CCSC1=C(C#N)C(c2ccccc2Cl)C(C(=O)c2cccs2)C(O)(C(F)(F)F)N1 (stereo not drawn) -13.9%, O=C(CSc1ncn(-c2ccccc2)n1)NCc1ccccc1 -10%, O=C(N/N=C/c1cccs1)c1cc(-c2ccc3ccccc3c2)n[nH]1 -28.6%, COCCNC(=O)CN(CCc1ccccc1)S(=O)(=O)c1ccc(OC)cc1 -3.99%, CCC(c1nnnn1C(C)(C)C)N1CCN(c2cc(Cl)ccc2C)CC1 (stereo not drawn) -19.7%, CCCCC1=CC2=CC(=O)C(C)(OC(=O)CC)C(=O)C2=CN1c1ccccc1 (stereo not drawn) -3.1%, COc1ccc(-n2c(C)nc3cc(C(=O)NCc4ccc5c(c4)OCO5)ccc32)cc1 -18.9%, CCCc1cc(C(=O)N/N=C/c2ccc(C)o2)c2ccccc2n1 -15.4%, O=C(CCOc1ccccc1)NCc1ccccc1 -13.4%, Cc1ccc(Cl)cc1NC(=O)CSC(N)=O -6.83%, O[C@@H]1[C@@H]2c3cc4c(cc3CN3CCC(=C[C@@H]1O)[C@H]23)OCO4 -4.2%, Cc1c(C(=O)NN)nc2ccccn12 -11.6%, N#Cc1cccc(-n2nnnc2-c2ccc3c(c2)OCO3)c1 -9.67%, Cn1c(-c2ccc(Cl)cc2)cnc1N -5.33%, Cc1nn(C(C)C(=O)Nc2sc3c(c2C#N)CCCC3)c(C)c1[N+](=O)[O-] (stereo not drawn) -3.98%, Cc1c(C(=O)OCC(=O)Nc2ccc3c(c2)OCO3)cccc1[N+](=O)[O-] -10.8%, Cc1ccc(C(=O)Cn2c3c(sc2=N)CCCC3)cc1 -19.4%, CCOC(=O)c1sc(NC(=O)CSc2nnnn2-c2ccccc2)nc1C -8.19%
